# Test results: ChEMBL document CHEMBL1961873, “Compounds: GSK PKIS; Assays: Nanosyn kinase panel” (2012)
# For part of these data: The strong results were mostly taken out for another list; the other results follow. The entries are a selection whose mix differs from that of the whole data set.
# Experiments:
# [1] = target: T1, Serine/threonine-protein kinase Nek9 (Homo sapiens) (UniProt Q8TD19); details: at 1 µM;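 note: each value is a mean percent inhibition of NEK9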
# T1 sequence (whole entry): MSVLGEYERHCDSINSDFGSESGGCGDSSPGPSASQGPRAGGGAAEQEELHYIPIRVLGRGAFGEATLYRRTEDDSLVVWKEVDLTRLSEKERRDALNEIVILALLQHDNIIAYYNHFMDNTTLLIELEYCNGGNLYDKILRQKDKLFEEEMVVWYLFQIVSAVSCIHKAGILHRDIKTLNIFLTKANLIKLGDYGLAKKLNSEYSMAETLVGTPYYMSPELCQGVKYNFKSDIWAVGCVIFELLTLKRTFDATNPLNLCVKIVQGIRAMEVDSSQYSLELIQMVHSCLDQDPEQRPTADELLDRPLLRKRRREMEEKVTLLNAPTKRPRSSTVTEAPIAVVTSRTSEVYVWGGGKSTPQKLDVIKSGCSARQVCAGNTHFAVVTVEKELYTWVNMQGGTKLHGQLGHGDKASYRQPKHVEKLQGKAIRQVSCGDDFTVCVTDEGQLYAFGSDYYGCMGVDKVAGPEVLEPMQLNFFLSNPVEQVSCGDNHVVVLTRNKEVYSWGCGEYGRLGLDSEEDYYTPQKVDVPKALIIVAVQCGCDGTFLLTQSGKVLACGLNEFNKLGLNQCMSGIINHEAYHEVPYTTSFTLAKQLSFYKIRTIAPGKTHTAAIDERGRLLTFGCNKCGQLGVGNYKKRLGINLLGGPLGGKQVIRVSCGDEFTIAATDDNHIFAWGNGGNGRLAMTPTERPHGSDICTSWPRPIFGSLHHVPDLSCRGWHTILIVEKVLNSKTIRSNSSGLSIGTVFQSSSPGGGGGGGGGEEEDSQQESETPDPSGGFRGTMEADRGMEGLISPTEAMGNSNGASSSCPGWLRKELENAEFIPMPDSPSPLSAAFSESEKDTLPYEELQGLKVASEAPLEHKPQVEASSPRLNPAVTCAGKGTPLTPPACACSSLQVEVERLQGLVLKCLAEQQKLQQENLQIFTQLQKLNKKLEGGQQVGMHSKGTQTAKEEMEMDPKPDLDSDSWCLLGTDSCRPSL
# [2] = target: Serine/threonine-protein kinase PLK1 (Homo sapiens) (UniProt P53350); details: at 0.1 µM
# [3] = target: Serine/threonine-protein kinase PLK1 (Homo sapiens) (UniProt P53350); details: at 1 µM
# [4] = target: T2, Dual specificity protein kinase TTK (Homo sapiens) (UniProt P33981); details: at 0.1 µM
# T2 sequence (whole entry): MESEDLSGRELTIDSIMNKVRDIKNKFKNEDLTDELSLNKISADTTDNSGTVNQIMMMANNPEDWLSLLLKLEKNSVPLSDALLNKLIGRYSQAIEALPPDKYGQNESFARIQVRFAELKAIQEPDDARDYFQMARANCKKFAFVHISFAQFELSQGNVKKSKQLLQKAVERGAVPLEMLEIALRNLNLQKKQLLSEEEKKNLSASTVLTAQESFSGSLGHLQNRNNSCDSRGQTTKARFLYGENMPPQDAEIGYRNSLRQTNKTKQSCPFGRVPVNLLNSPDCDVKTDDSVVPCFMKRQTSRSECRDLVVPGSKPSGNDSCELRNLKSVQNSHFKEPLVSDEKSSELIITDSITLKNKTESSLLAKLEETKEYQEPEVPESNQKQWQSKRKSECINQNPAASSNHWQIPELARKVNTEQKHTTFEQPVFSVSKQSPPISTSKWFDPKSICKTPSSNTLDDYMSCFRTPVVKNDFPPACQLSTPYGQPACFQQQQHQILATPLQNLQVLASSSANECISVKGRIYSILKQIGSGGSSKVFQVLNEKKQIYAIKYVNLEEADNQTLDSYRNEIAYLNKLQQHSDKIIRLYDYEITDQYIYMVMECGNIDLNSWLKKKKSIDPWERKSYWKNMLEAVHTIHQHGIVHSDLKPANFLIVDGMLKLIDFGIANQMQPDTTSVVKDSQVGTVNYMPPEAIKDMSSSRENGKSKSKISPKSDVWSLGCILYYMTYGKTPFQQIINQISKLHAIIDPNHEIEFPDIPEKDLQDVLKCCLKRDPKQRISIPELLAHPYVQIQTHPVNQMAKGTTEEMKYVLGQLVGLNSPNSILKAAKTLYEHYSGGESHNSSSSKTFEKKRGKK
# [5] = system: T3, Receptor-type tyrosine-protein kinase FLT3 (Homo sapiens), P36888 [D835Y]; details: at 1 µM
# T3 sequence (whole entry): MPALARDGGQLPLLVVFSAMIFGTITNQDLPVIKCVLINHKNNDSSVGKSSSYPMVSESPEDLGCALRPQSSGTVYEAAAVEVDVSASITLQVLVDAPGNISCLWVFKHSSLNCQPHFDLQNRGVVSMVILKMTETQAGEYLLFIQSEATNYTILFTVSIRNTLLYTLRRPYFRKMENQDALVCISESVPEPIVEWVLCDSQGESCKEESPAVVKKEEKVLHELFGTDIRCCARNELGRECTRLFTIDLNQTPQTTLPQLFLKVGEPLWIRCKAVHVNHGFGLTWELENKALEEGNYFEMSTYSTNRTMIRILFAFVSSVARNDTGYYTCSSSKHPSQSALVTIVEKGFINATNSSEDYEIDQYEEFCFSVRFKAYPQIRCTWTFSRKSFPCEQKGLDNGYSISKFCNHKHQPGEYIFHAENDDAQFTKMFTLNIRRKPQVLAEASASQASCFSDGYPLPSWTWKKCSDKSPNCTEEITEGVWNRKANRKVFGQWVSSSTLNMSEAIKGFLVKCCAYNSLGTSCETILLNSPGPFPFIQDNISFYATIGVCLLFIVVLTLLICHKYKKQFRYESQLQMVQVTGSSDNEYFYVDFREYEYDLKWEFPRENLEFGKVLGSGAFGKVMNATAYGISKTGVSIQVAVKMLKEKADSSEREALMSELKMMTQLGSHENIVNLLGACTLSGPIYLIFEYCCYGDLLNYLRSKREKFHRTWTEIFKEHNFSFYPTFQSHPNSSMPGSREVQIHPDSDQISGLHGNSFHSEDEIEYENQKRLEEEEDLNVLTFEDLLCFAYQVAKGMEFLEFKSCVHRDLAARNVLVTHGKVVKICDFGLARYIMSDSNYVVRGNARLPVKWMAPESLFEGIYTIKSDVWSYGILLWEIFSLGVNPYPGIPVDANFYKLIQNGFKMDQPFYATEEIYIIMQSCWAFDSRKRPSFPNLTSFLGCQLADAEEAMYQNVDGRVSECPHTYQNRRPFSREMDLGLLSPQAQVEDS
# [6] = target: Vascular endothelial growth factor receptor 3 (Homo sapiens) (UniProt P35916); details: at 0.1 µM
# [7] = target: Vascular endothelial growth factor receptor 3 (Homo sapiens) (UniProt P35916); details: at 1 µM
# [8] = target: Macrophage colony-stimulating factor 1 receptor (Homo sapiens) (UniProt P07333); details: at 0.1 µM
# [9] = target: Macrophage colony-stimulating factor 1 receptor (Homo sapiens) (UniProt P07333); details: at 1 µM
# [10] = target: Tyrosine-protein kinase Fyn (Homo sapiens) (UniProt P06241); details: at 0.1 µM
# UniProt P06241, sequence (P06241 whole entry, looked up): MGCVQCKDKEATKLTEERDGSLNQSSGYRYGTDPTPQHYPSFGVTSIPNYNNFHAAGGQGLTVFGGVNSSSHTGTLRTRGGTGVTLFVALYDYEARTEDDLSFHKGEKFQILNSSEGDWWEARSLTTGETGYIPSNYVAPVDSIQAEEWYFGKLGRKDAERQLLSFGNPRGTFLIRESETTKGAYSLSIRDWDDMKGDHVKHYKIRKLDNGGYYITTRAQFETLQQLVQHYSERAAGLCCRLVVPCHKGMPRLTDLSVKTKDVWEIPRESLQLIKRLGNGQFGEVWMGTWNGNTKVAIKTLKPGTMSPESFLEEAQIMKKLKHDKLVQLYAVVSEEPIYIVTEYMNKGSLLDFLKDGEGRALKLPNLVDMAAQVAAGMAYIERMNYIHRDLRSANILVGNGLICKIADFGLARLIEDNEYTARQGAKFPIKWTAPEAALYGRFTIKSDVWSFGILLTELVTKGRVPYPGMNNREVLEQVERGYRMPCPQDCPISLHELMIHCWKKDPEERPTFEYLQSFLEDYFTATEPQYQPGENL
# UniProt P35916, sequence (P35916 whole entry): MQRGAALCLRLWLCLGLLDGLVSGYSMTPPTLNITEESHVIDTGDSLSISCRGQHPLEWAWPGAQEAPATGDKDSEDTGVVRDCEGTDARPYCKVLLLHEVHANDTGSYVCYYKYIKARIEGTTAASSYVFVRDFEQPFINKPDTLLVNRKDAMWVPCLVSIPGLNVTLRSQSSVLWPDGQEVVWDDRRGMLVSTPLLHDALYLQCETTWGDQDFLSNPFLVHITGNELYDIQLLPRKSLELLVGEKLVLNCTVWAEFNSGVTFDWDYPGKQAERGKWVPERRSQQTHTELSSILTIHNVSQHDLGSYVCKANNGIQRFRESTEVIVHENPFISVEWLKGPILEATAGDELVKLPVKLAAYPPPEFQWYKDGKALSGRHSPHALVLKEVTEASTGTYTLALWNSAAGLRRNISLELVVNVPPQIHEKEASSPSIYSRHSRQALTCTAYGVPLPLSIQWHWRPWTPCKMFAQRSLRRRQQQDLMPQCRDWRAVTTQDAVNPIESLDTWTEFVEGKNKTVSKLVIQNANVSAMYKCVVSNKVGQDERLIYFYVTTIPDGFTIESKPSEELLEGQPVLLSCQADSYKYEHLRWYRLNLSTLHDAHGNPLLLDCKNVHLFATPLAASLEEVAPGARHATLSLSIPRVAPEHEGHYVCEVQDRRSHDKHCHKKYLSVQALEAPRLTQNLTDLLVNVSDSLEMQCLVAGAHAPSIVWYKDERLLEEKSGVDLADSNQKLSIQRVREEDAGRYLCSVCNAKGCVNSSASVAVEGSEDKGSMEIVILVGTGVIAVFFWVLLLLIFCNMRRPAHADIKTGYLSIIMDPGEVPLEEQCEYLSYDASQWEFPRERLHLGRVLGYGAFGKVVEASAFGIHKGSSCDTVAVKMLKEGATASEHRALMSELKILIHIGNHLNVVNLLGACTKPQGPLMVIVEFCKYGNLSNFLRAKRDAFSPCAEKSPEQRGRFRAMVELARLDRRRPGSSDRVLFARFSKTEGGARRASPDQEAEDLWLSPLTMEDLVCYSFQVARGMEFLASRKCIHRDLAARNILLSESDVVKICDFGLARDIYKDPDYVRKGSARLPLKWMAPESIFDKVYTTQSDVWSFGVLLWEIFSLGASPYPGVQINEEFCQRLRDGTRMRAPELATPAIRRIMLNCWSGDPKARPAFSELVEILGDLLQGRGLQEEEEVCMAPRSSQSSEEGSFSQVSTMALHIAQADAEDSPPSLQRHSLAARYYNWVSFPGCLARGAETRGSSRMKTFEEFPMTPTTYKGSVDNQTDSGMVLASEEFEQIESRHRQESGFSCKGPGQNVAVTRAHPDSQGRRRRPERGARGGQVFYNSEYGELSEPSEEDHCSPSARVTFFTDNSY
# UniProt P53350, sequence (P53350 whole entry): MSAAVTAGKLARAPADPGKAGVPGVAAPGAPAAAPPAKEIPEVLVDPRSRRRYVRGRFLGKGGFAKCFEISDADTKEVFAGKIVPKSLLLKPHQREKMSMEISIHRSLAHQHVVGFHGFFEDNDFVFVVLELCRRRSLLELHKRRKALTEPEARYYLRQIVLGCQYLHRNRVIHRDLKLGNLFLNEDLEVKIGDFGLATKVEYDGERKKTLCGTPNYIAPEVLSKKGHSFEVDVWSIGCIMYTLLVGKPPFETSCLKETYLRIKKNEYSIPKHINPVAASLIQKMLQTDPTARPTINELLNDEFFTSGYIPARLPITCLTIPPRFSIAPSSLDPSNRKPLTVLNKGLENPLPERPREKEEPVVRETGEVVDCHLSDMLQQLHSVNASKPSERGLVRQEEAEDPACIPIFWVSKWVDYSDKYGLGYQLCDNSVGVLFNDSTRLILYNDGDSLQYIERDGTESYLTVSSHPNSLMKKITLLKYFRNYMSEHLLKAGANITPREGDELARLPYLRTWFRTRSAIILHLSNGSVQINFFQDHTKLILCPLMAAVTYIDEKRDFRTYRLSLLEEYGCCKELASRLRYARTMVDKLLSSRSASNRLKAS
# UniProt P07333, sequence (P07333 whole entry): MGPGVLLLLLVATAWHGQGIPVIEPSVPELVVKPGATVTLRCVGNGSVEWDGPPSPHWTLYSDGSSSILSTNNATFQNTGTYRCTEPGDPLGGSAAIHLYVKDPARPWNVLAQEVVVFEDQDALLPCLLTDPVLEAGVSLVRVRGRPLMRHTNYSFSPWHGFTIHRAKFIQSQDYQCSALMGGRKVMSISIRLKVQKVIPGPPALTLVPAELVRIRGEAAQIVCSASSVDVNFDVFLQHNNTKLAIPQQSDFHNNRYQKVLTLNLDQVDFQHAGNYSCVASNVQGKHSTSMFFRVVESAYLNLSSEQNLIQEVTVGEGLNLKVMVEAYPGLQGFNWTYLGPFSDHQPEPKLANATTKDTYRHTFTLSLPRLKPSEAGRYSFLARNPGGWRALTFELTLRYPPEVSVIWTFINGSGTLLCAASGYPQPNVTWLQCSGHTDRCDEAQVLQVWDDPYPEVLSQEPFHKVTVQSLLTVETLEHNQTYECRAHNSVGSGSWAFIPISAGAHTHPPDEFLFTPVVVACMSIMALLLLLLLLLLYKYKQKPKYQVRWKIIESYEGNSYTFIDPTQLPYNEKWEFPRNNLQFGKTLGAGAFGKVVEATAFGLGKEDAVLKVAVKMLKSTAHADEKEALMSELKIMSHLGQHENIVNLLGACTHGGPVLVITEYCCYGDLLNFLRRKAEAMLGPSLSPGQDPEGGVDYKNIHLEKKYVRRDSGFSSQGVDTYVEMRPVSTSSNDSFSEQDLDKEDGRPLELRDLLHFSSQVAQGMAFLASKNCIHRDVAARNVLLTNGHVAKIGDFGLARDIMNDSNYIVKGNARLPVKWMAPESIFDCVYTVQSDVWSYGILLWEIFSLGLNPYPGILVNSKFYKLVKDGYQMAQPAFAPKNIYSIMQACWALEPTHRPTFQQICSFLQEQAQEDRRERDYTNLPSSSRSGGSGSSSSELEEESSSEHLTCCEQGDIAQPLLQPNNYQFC
SMILES,inhibition [1] [%],inhibition [2] [%],inhibition [3] [%],inhibition [4] [%],inhibition [5] [%],inhibition [6] [%],inhibition [7] [%],inhibition [8] [%],inhibition [9] [%],inhibition [10] [%]
CC(C)(C)c1ccc(Oc2nccc(-c3c(-c4ccc(F)cc4)ncn3C3CCNCC3)n2)cc1,12.6,4.97,4.16,10.3,1.76,0.78,0.42,-0.24,2.13,0.6
NC(=O)CCc1ccccc1Oc1nccc(-c2c(-c3ccc(F)cc3)ncn2C2CCNCC2)n1,2.86,-0.62,1.09,2.26,1.87,0.39,3.67,-3.35,-0.19,0.6
COc1ccccc1Oc1nccc(-c2c(-c3ccc(F)cc3)ncn2C2CCNCC2)n1,6.21,5.14,26.4,13.3,0.62,2.32,2.71,-0.34,7.51,0.99
Fc1ccc(-c2ncn(C3CCNCC3)c2-c2ccnc(Oc3cccc(C(F)(F)F)c3)n2)cc1,4.49,3.38,3.12,15.7,-0.56,5.59,5.6,-0.43,10.2,3.54
Fc1ccc(-c2ncn(C3CCNCC3)c2-c2ccnc(Oc3cccc(F)c3)n2)cc1,8.15,5.87,7.08,6.94,1.88,5.84,2.46,4.37,10.5,4.95
Fc1ccc(Oc2nccc(-c3c(-c4ccc(F)cc4)ncn3C3CCNCC3)n2)cc1,4.98,4.29,7.22,6.82,1.57,-4.49,–,4.05,8.52,-1.7
COc1ccccc1C1=C(Nc2ccccc2)C(=O)NC1=O,9.03,3.34,1.42,4.06,3.02,1.54,4.56,0.47,4.75,2.9
O=C1NC(=O)C(c2ccccc2Cl)=C1Nc1cc(Cl)c(O)c(Cl)c1,7.1,0.91,1.83,13.6,2.79,3.13,1.9,4.22,5.16,-0.84
Fc1ccc(-c2ncn(C3CCNCC3)c2-c2ccnc(Oc3ccc(Cl)cc3)n2)cc1,3.47,2.53,2.24,3.26,3.27,0.25,1.05,-2.07,0.01,1.88
O=C1NC(=O)C(c2cccc([N+](=O)[O-])c2)=C1Nc1cc(Cl)c(O)c(Cl)c1,4.74,1.85,-1.62,4.08,-1.93,0.47,2.54,0.1,27,0.08
O=C(O)c1ccc(Oc2nccc(-c3c(-c4ccc(F)cc4)ncn3C3CCNCC3)n2)cc1,5.05,4.27,7.38,7.97,-3.54,11.2,15.4,7.73,4.11,2.92
O=C1NC(=O)C(c2ccccc2)=C1Nc1ccccc1,16.3,4.07,3.37,9.86,2.56,6.24,11.6,2.47,4.84,2.43
Cc1cccc(Oc2nccc(-c3c(-c4ccc(F)cc4)ncn3C3CCNCC3)n2)c1C,5.85,3.27,3.1,6.84,2.26,0.75,2.35,-3.93,3.13,-0.04
CS(=O)(=O)c1ccc(Oc2nccc(-c3c(-c4ccc(F)cc4)ncn3C3CCNCC3)n2)cc1,7.01,4.11,3.44,9.5,–,-0.77,-3.12,-1.87,3.3,-0.5
